# In the supplement of paper PMC10037445:
# Several values for one entry are separate records, joined by “and”; a condition that tells them apart may be missing. Equal entries are not always repeated. In all, about 2,900 compounds were measured (“IRF Lucia reporter activity, fold change vs agonist alone”: median about 0.9, highest 2% from about 2.8 on). This is one part of the list.
# What was measured:
# RAW-Dual [1] = assay: IRF Lucia reporter activity, fold change vs agonist alone; higher = enhanced IRF activity; conditions: cytotoxicity flag (confluency mask): not cytotoxic, agonist: MPLA (TLR4) […]
# How it was run: (§1)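 RAW-Dual macrophages (50,000 cells/well in DMEM, 384-well plates) received 50 nL of library stock by pin tool, then a PRR agonist 1 h later, and were kept at 37 °C, 5% CO2. After 20 hours, supernatant was read for IRF by QuantiLuc luminescence and for NF-κB by QuantiBlue absorbance at 620 nm. Reporter activity is fold change over agonist-alone wells. Cytotoxic wells had IncuCyte confluency below 70% of agonist controls in both mask sets.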
# RAW-Dual [2] = assay: IRF Lucia reporter activity, fold change vs agonist alone; cytotoxicity flag (confluency mask): not cytotoxic; higher = enhanced IRF activity
# How it was run: as §1
# RAW-Dual [3] = assay: IRF Lucia reporter activity, fold change vs agonist alone; cytotoxicity flag (confluency mask): cytotoxic (confluency <70% of control); higher = enhanced IRF activity
# How it was run: as §1
# [4] = library stock concentration (final ~1000-fold dilution): 10 mM
# [5] = library stock concentration (final ~1000-fold dilution): 2 mM
# [6] = agonist: 3'3'-cGAMP (STING) 10 ug/mL
smiles,measurement,setting,value
COC1CC2CCC(C)C(O)(O2)C(=O)C(=O)N2CCCCC2C(=O)OC(C(C)CC2CCC(OC(=O)C(C)(CO)CO)C(OC)C2)CC(=O)C(C)C=C(C)C(O)C(OC)C(=O)C(C)CC(C)C=CC=CC=C1C (configuration not stated),IRF Lucia reporter activity,RAW-Dual [1]; [4],4.11
COc1cc(N2CCC(N3CCN(C)CC3)CC2)ccc1Nc1ncc(Cl)c(Nc2ccccc2S(=O)(=O)C(C)C)n1,IRF Lucia reporter activity,RAW-Dual [1]; [5],0.851
COc1cc(N2CCC(N3CCN(C)CC3)CC2)ccc1Nc1ncc(Cl)c(Nc2ccccc2S(=O)(=O)C(C)C)n1 (library stock concentration (final ~1000-fold dilution): 2 mM),IRF Lucia reporter activity,RAW-Dual [2]; [6],0.131
same,IRF Lucia reporter activity,RAW-Dual [2]; agonist: LPS (TLR4) 0.1 ug/mL,0.527
CC1CCc2cc(F)cc3c(=O)c(C(=O)O)cn1c23 (configuration not stated) (library stock concentration (final ~1000-fold dilution): 10 mM),IRF Lucia reporter activity,RAW-Dual [2]; [6],1.05
same,IRF Lucia reporter activity,RAW-Dual [2]; agonist: LPS (TLR4) 0.1 ug/mL,0.759
CC1CCc2cc(F)cc3c(=O)c(C(=O)O)cn1c23 (configuration not stated),IRF Lucia reporter activity,RAW-Dual [1]; [4],1.29
CNC(=O)CN1CCC(Oc2cc3c(Nc4cccc(Cl)c4F)ncnc3cc2OC)CC1,IRF Lucia reporter activity,RAW-Dual [1]; [4],0.417
CNC(=O)CN1CCC(Oc2cc3c(Nc4cccc(Cl)c4F)ncnc3cc2OC)CC1 (library stock concentration (final ~1000-fold dilution): 10 mM),IRF Lucia reporter activity,RAW-Dual [2]; [6],0.308
same,IRF Lucia reporter activity,RAW-Dual [2]; agonist: LPS (TLR4) 0.1 ug/mL,0.773
CCCS(=O)(=O)Nc1ccc(F)c(C(=O)c2c[nH]c3ncc(Cl)cc23)c1F (library stock concentration (final ~1000-fold dilution): 10 mM),IRF Lucia reporter activity,RAW-Dual [2]; [6],0.268
same,IRF Lucia reporter activity,RAW-Dual [2]; agonist: LPS (TLR4) 0.1 ug/mL,0.377
CCCS(=O)(=O)Nc1ccc(F)c(C(=O)c2c[nH]c3ncc(Cl)cc23)c1F,IRF Lucia reporter activity,RAW-Dual [1]; [4],0.42
Nc1nc(N)nc(-c2cc(Cl)ccc2Cl)n1 (library stock concentration (final ~1000-fold dilution): 2 mM),IRF Lucia reporter activity,RAW-Dual [2]; [6],0.925
same,IRF Lucia reporter activity,RAW-Dual [2]; agonist: LPS (TLR4) 0.1 ug/mL,1.02
Nc1nc(N)nc(-c2cc(Cl)ccc2Cl)n1,IRF Lucia reporter activity,RAW-Dual [1]; [5],1.23
CCN1CCCC1CNC(=O)c1cc(S(=O)(=O)CC)c(N)cc1OC (configuration not stated) (library stock concentration (final ~1000-fold dilution): 10 mM),IRF Lucia reporter activity,RAW-Dual [2]; [6],0.951
same,IRF Lucia reporter activity,RAW-Dual [2]; agonist: LPS (TLR4) 0.1 ug/mL,0.924
CCN1CCCC1CNC(=O)c1cc(S(=O)(=O)CC)c(N)cc1OC (configuration not stated),IRF Lucia reporter activity,RAW-Dual [1]; [4],0.95
CCCOc1ccc(CCc2nc3cc(-c4c(C)noc4C)ccc3n2CCN2CCOCC2)cc1.Cl (library stock concentration (final ~1000-fold dilution): 10 mM),IRF Lucia reporter activity,RAW-Dual [2]; [6],0.403
same,IRF Lucia reporter activity,RAW-Dual [2]; agonist: LPS (TLR4) 0.1 ug/mL,0.23
COc1cc(N)c(Cl)cc1C(=O)NC1CCN(Cc2ccccc2)CC1 (library stock concentration (final ~1000-fold dilution): 10 mM),IRF Lucia reporter activity,RAW-Dual [2]; [6],0.746
same,IRF Lucia reporter activity,RAW-Dual [2]; agonist: LPS (TLR4) 0.1 ug/mL,0.908
COc1cc(N)c(Cl)cc1C(=O)NC1CCN(Cc2ccccc2)CC1,IRF Lucia reporter activity,RAW-Dual [1]; [4],1.07
O=S(=O)(NCCN1CCNCC1)c1ccc(NC2CCCCC2)c(NCc2ccccc2)c1 (library stock concentration (final ~1000-fold dilution): 10 mM),IRF Lucia reporter activity,RAW-Dual [3]; [6],0.666
same,IRF Lucia reporter activity,RAW-Dual [3]; agonist: LPS (TLR4) 0.1 ug/mL,1.22
O=C(Nc1cc(Cl)cc2c1[nH]c1cnccc12)c1cccnc1 (library stock concentration (final ~1000-fold dilution): 10 mM),IRF Lucia reporter activity,RAW-Dual [2]; [6],0.176 and 0.235
same,IRF Lucia reporter activity,RAW-Dual [2]; agonist: LPS (TLR4) 0.1 ug/mL,0.283 and 0.265
C[C@@H]1O[C@@H](O[C@@H]2[C@@H](O)[C@H](OCCc3ccc(O)c(O)c3)O[C@H](CO[C@@H]3O[C@H](CO)[C@@H](O)[C@H](O)[C@H]3O)[C@H]2OC(=O)/C=C/c2ccc(O)c(O)c2)[C@H](O)[C@H](O)[C@H]1O (library stock concentration (final ~1000-fold dilution): 10 mM),IRF Lucia reporter activity,RAW-Dual [2]; [6],1.04
same,IRF Lucia reporter activity,RAW-Dual [2]; agonist: LPS (TLR4) 0.1 ug/mL,1.19
Cc1nc(Nc2ccc(F)cc2)nc(N2CCc3ccccc3C2C)c1C.Cl (configuration not stated),IRF Lucia reporter activity,RAW-Dual [1]; [4],1.59
Cc1nc(Nc2ccc(F)cc2)nc(N2CCc3ccccc3C2C)c1C.Cl (configuration not stated) (library stock concentration (final ~1000-fold dilution): 10 mM),IRF Lucia reporter activity,RAW-Dual [2]; [6],0.465
same,IRF Lucia reporter activity,RAW-Dual [2]; agonist: LPS (TLR4) 0.1 ug/mL,1.25
CN1CCN(c2ccc(C(=O)Nc3n[nH]c4ccc(Cc5cc(F)cc(F)c5)cc34)c(NC3CCOCC3)c2)CC1 (library stock concentration (final ~1000-fold dilution): 10 mM),IRF Lucia reporter activity,RAW-Dual [3]; [6],0.032
same,IRF Lucia reporter activity,RAW-Dual [3]; agonist: LPS (TLR4) 0.1 ug/mL,0.0438
CN1C(=N)NC(C)(c2cc(NC(=O)c3ccc(F)cn3)ccc2F)CS1(=O)=O.O=C(O)C(F)(F)F (configuration not stated) (library stock concentration (final ~1000-fold dilution): 10 mM),IRF Lucia reporter activity,RAW-Dual [2]; [6],0.974
same,IRF Lucia reporter activity,RAW-Dual [2]; agonist: LPS (TLR4) 0.1 ug/mL,0.998
CS(=O)(=O)c1ccc(Oc2cc(F)cc(C#N)c2)c2c1C(O)C(F)(F)C2 (configuration not stated) (library stock concentration (final ~1000-fold dilution): 10 mM),IRF Lucia reporter activity,RAW-Dual [2]; [6],0.969
same,IRF Lucia reporter activity,RAW-Dual [2]; agonist: LPS (TLR4) 0.1 ug/mL,1.08
COc1ccc2[nH]c(S(=O)Cc3ncc(C)c(OC)c3C)nc2n1 (configuration not stated) (library stock concentration (final ~1000-fold dilution): 10 mM),IRF Lucia reporter activity,RAW-Dual [2]; [6],1.07
same,IRF Lucia reporter activity,RAW-Dual [2]; agonist: LPS (TLR4) 0.1 ug/mL,1.22
COc1ccc2[nH]c(S(=O)Cc3ncc(C)c(OC)c3C)nc2n1 (configuration not stated),IRF Lucia reporter activity,RAW-Dual [1]; [4],1.16
